Measured values: the antibiotic and cytotoxicity screens of Wong et al. (2023)
This is one part of the list.

How the values were obtained:
[1] = tested on: HSkMC (human skeletal muscle cells); assay: cytotoxicity call (relative viability < 0.9); conditions: 10 µM
[2] = tested on: HepG2; assay: cytotoxicity call (relative viability < 0.9); conditions: 10 µM
[3] = tested on: S. aureus RN4220; assay: growth inhibition call (relative growth <= 0.2); conditions: 50 µM

COC(=O)[C@H](Cc1ccc(-n2cc(-c3ccc(C(=O)NO)cc3)nn2)cc1)N1CC2=C[C@H]([C@@H](O)Cc3ccccc3)n3c(=O)n(C)c(=O)n3[C@@H]2[C@@H](C2CC2)O1
cytotoxicity call [1]: inactive
cytotoxicity call [2]: inactive
growth inhibition call [3]: inactive

COc1ccc(NC(=O)Nc2ccc3c(c2)C(=O)N([C@@H](C)CO)C[C@@H](C)[C@H](CN(C)C(=O)CCC(F)(F)F)OCCCC[C@@H](C)O3)cc1
cytotoxicity call [1]: inactive
cytotoxicity call [2]: inactive
growth inhibition call [3]: inactive

C[C@@H]1CCCCO[C@@H](CN(C)S(=O)(=O)c2ccc(Cl)cc2)[C@@H](C)CN([C@@H](C)CO)C(=O)c2cc(NC(=O)Nc3cccc4ccccc34)ccc2O1
cytotoxicity call [1]: inactive
cytotoxicity call [2]: active
growth inhibition call [3]: inactive

C[C@@H]1CN([C@H](C)CO)C(=O)c2cccc(NS(=O)(=O)c3ccccc3)c2O[C@@H]1CN(C)Cc1ccc(Oc2ccccc2)cc1
cytotoxicity call [1]: inactive
cytotoxicity call [2]: inactive
growth inhibition call [3]: inactive

Nc1ccc(O)cc1
cytotoxicity call [1]: inactive
cytotoxicity call [2]: active
growth inhibition call [3]: inactive

O=c1[nH]c(=S)nc2n(CCO)[nH]cc1-2
cytotoxicity call [1]: inactive
cytotoxicity call [2]: inactive
growth inhibition call [3]: inactive

COC(=O)C(CC#Cc1ccc2c(c1)[C@]1(C(=O)N2)[C@H](C(=O)N2CCc3cc(OC)c(OC)cc3C2)[C@H]2C(=O)O[C@H](c3ccccc3)[C@H](c3ccccc3)N2[C@@H]1c1ccc(OCCO)cc1)C(=O)OC
cytotoxicity call [1]: inactive
cytotoxicity call [2]: inactive
growth inhibition call [3]: inactive

C[C@@H]1CN([C@@H](C)CO)C(=O)Cc2cc(NC(=O)NC3CCCCC3)ccc2O[C@H]1CN(C)Cc1ccc(C(=O)Nc2ccccc2N)cc1
cytotoxicity call [1]: inactive
cytotoxicity call [2]: inactive
growth inhibition call [3]: inactive

O=C(NC1CC1)c1n[nH]c(=O)c2ccccc12
cytotoxicity call [1]: inactive
cytotoxicity call [2]: inactive
growth inhibition call [3]: inactive

C=CCC[C@@H](Cc1ccc(F)cc1)C(=O)O[C@H](CNC(=O)[C@@H](CC=C)CC(=O)N[C@@H](CO)Cc1ccccc1)c1ccccc1
cytotoxicity call [1]: inactive
cytotoxicity call [2]: inactive
growth inhibition call [3]: inactive

COc1ccc(-n2nc(C(N)=O)c3c2C(=O)N(c2ccc(N4CCCCC4=O)cc2)CC3)cc1
cytotoxicity call [1]: inactive
cytotoxicity call [2]: inactive
growth inhibition call [3]: inactive

C[C@H]1CN([C@@H](C)CO)S(=O)(=O)c2ccc(-c3ccc(C(=O)N(C)C)cc3)cc2O[C@@H]1CN(C)C(=O)C1CCOCC1
cytotoxicity call [1]: inactive
cytotoxicity call [2]: inactive
growth inhibition call [3]: inactive
